{
  "source": "PubChem BioAssay AID686978",
  "about": "(National Center for Advancing Translational Sciences (NCATS), 2013)",
  "note": "The whole screen tested about 420,000 compounds, of which about 64,000 (15%) were called active. This list was built around the results that the source calls inconclusive (neither active nor inactive); the mix of calls is not that of the screen. The call rests on the fitted dose curve; in most records, active means well fitted inhibition curve with a large enough effect; inconclusive means small, poorly fitted or top-dose-only effect; inactive means flat fitted curve, though single readings scatter. Potencies of inconclusive entries are left out as doubtful fits. Potency means the concentration at half of the fitted maximal effect; tags describe the fitted curve by direction and shape.",
  "data": [
    {"test": "qHTS for Inhibitors of human tyrosyl-DNA phosphodiesterase 1 (TDP1): qHTS in cells in absence of CPT; further: nearly all actives have a fitted effect of over 55% in size", "conditions": "DT40 Tdp1-/- hTDP1 cells, no CPT, ATP luminescence, 48 h; series mostly up to 46.2 µM", "in_short": "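A cellular qHTS used chicken DT40 cells lacking endogenous Tdp1 but carrying stably transfected human TDP1. Compounds were applied without camptothecin, and cell growth kinetics were judged by ATP-dependent luminescence after ≥48 hr.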", "values": [
      {"smiles": "O=C(NCC(=O)N1CCN(Cc2ccccc2)CC1)c1ccc(Cl)cc1", "Potency": "inconclusive [inhibitor, partial curve, poor fit]"},
      {"smiles": "CCOC(=O)C(C#N)=C1CCC=C(C)C1", "Potency": "inactive"},
      {"smiles": "COC(=O)CN1C(=O)C(O)(CC(=O)c2cccc(Br)c2)c2ccccc21", "note": "(configuration not stated)", "Potency": "inconclusive [inhibitor, single point]"},
      {"smiles": "COc1ncccc1-c1cnc2cccnn12", "Potency": "inconclusive [inhibitor, full curve, poor fit]"},
      {"smiles": "Cc1ccccc1N1CCN(c2ncnc3c2cnn3Cc2ccc(Cl)cc2)CC1", "Potency": "active: 13 µM"},
      {"smiles": "COc1ccc(CCNC2=C(Cl)C(=O)N(Cc3ccccc3)C2=O)cc1OC", "Potency": "active: 20.6 µM"},
      {"smiles": "CC1CN(S(=O)(=O)c2ccc3c(c2)NC(=O)CC(=O)N3)c2ccccc2O1", "note": "(configuration not stated)", "Potency": "inconclusive [inhibitor, single point]"},
      {"smiles": "CCCCSc1nc2sc3c(c2c(=O)n1-c1ccc(C)cc1)CCN(C)C3", "Potency": "active: 14.6 µM"},
      {"smiles": "COc1cccc(CC2(CO)CCN(Cc3cccn3-c3cccnc3)CC2)c1", "Potency": "inconclusive [inhibitor, single point]"},
      {"smiles": "CCCCCC(=O)Nc1ccc(N2CCOCC2)c(S(=O)(=O)Nc2ccc(OC)cc2)c1", "Potency": "inactive"},
      {"smiles": "O=C(Nc1ccc(O)cc1)C1CC=CCC1", "note": "(configuration not stated)", "Potency": "inconclusive [inhibitor, partial curve]"},
      {"smiles": "O=C(CSc1nc(O)c(Cc2ccccc2)c(=O)n1-c1ccccc1)N1CCOCC1", "Potency": "inconclusive [inhibitor, single point]"},
      {"smiles": "COc1ccc(N2C(=O)C3ON(C4SC(=S)N(C)C4(C)C)C(c4ccc([N+](=O)[O-])cc4)C3C2=O)cc1", "note": "(configuration not stated)", "Potency": "inactive"},
      {"smiles": "CCn1nc(-c2ccc(C)cc2)nc2c(=O)n(C)c(=O)nc1-2", "Potency": "active: 2.24 µM"},
      {"smiles": "Cc1cc(C(=O)NC2CCCc3ccccc32)ccc1[N+](=O)[O-]", "note": "(configuration not stated)", "Potency": "inconclusive [inhibitor, single point]"},
      {"smiles": "COc1ccc(S(=O)(=O)N2CCN(Cc3ccccc3OC)CC2)cc1", "Potency": "inconclusive [inhibitor, single point]"},
      {"smiles": "C=CCNC(=S)N/N=C(\\C)c1ccccn1", "Potency": "active: 0.0184 µM"},
      {"smiles": "CCOC(=O)C1=C(C)NC(=S)NC1c1ccco1", "note": "(configuration not stated)", "Potency": "inconclusive [inhibitor, single point]"},
      {"smiles": "O=C(C[n+]1cc(Br)cc(Br)c1)c1ccc(I)cc1", "Potency": "inactive"},
      {"smiles": "Cc1cccc(-n2ncc3c(=O)[nH]c(SCC(=O)N4CC(=O)Nc5ccccc54)nc32)c1", "Potency": "active: 16.4 µM"},
      {"smiles": "O=C(CSc1ncn[nH]1)Nc1ccccc1Sc1ccccc1", "Potency": "inactive"},
      {"smiles": "O=C(CSc1nc(C2CC2)nc2ccccc12)N1CCCCC1", "Potency": "inconclusive [inhibitor, single point]"},
      {"smiles": "CCOC(=O)c1c(NC(=O)/C=C/C(=O)O)sc(C)c1-c1ccc(Cl)cc1", "Potency": "active: 13 µM"},
      {"smiles": "O=C(c1cc(-c2cccs2)nc2ccccc12)N1CCN(CCO)CC1", "Potency": "inactive"},
      {"smiles": "CCCS(=O)(=O)N1CCC(C(=O)N2CCCC2)CC1", "Potency": "inactive"},
      {"smiles": "COc1ccc(-c2cc(C(=O)N3CCN(S(=O)(=O)c4ccccc4)CC3)[nH]n2)cc1", "Potency": "inconclusive [inhibitor, single point]"},
      {"smiles": "CCNC(=S)N(CCc1c(C)[nH]c2ccccc12)Cc1cc(OC)c(OC)c(OC)c1", "Potency": "active: 10.3 µM"},
      {"smiles": "CC(C)(C)c1ccc(C(=O)Nc2ccc(C(=O)N3CCCC3)cc2)cc1", "Potency": "active: 23.1 µM"},
      {"smiles": "O=C(N=C1SC2CS(=O)(=O)CC2N1Cc1ccccc1)c1ccccc1", "note": "(configuration not stated)", "Potency": "inconclusive [inhibitor, single point]"},
      {"smiles": "Cc1ccc(C(O)(C(=O)NN(C(=O)c2ccccc2)c2ccccc2)c2ccc(C)cc2)cc1", "Potency": "inconclusive [inhibitor, single point]"},
      {"smiles": "COc1ccc(C2c3[nH]c4ccccc4c3C[C@H]3C(=O)N(c4ccccc4C(=O)NCCN4CCOCC4)C(=O)N23)cc1", "note": "(some centres not stated)", "Potency": "inconclusive [inhibitor, single point]"},
      {"smiles": "O=S(=O)(Nc1ccc(-c2ccc(N3CCCC3)nn2)cc1)c1cccc(C(F)(F)F)c1", "Potency": "inconclusive [inhibitor, single point]"},
      {"smiles": "Cc1nn(Cc2ccc(F)cc2)c(C)c1NC(=O)c1cc(-c2ccc3c(c2)OCO3)on1", "Potency": "active: 13 µM"},
      {"smiles": "C/C(=N\\NC(=O)c1cc(Br)ccc1O)c1cccs1", "Potency": "inactive"},
      {"smiles": "COC(=O)c1cccc(N(C(=O)CNC(=O)c2cccs2)C(C(=O)NCC2CCCO2)c2ccc(OC)c(OC)c2)c1", "note": "(configuration not stated)", "Potency": "inactive"},
      {"smiles": "CCCc1nc2c(c(=O)c3ccccc3n2C)c(=O)n1-c1ccc(F)cc1", "Potency": "inconclusive [inhibitor, single point]"},
      {"smiles": "COc1ccc(-n2cc(C(=O)c3ccccc3O)cn2)cc1", "Potency": "inconclusive [inhibitor, single point]"},
      {"smiles": "OCCC1CN(Cc2ccccc2-c2ccco2)CCN1Cc1ccccc1", "note": "(configuration not stated)", "Potency": "inconclusive [inhibitor, partial curve]"},
      {"smiles": "CCOC(=O)c1ccc(C#Cc2ccc3c(c2)C(C)(C)CCS3)nc1", "Potency": "inconclusive [inhibitor, partial curve, poor fit]"},
      {"smiles": "COc1ccc(NC(=O)C2COc3ccccc3O2)cc1S(=O)(=O)N1CCOCC1", "note": "(configuration not stated)", "Potency": "inconclusive [inhibitor, partial curve]"},
      {"smiles": "CCc1ccc2nc(NC(=O)C3CCN(c4ncnc5sc(C)c(C)c45)CC3)sc2c1", "Potency": "inconclusive [inhibitor, single point]"},
      {"smiles": "COCCNC(=O)C1(C)CCCN(C(=O)CCc2ccccc2)C1", "note": "(configuration not stated)", "Potency": "inactive"},
      {"smiles": "Cc1ccc(-c2nc3c4ccccc4ccn3c2Cc2ccsc2)cc1", "Potency": "inconclusive [inhibitor, single point]"},
      {"smiles": "CCOC1=C2[C@@H](CN(S(=O)(=O)c3ccc(C)cc3)[C@H]2c2ccccc2Cl)[C@H]2C(=O)N(Cc3ccccc3)C(=O)[C@H]2C1", "Potency": "active: 14.6 µM"},
      {"smiles": "COCCNC(=S)N=Nc1c(O)[nH]c2ccc([N+](=O)[O-])cc12", "Potency": "inconclusive [inhibitor, single point]"},
      {"smiles": "COc1cc(OC)cc(C(=O)NCCNC(=O)c2ccccn2)c1", "Potency": "inactive"},
      {"smiles": "CCOC(=O)/C=C1\\CC(C(=O)OCC)Oc2ccccc21", "note": "(configuration not stated)", "Potency": "inactive"},
      {"smiles": "CCc1ccc(C(O)c2ncc(-c3ccccc3F)[nH]2)cc1", "note": "(configuration not stated)", "Potency": "inconclusive [inhibitor, single point]"},
      {"smiles": "CC1(C)CC(OC(=O)c2ccco2)CC(C)(C)N1O", "Potency": "inconclusive [inhibitor, partial curve, poor fit]"},
      {"smiles": "CCOc1ccccc1NC(=O)CCCc1ccc(OC)c(C)c1", "Potency": "inconclusive [inhibitor, single point]"},
      {"smiles": "C=CCNC(=O)C1(c2ccccc2)CC1(Cl)Cl", "note": "(configuration not stated)", "Potency": "inactive"},
      {"smiles": "COc1ccc([C@H]2CC(=O)C=C(c3ccccc3C(F)(F)F)C2)cc1", "Potency": "inactive"},
      {"smiles": "O=C1/C(=C/c2ccsc2)N2CCC1CC2", "Potency": "inactive"},
      {"smiles": "CNc1nc(N)c([N+](=O)[O-])c(N2CCCCCC2)n1", "Potency": "inactive"},
      {"smiles": "C/C(CS(=O)(=O)c1ccccc1)=N\\O", "Potency": "inactive"},
      {"smiles": "COc1cccc(NC(=O)Cn2c(=O)n(CCCCC(=O)NCCc3ccccc3)c(=O)c3ccccc32)c1", "Potency": "inconclusive [inhibitor, partial curve, poor fit]"},
      {"smiles": "O=C(CSc1nnc(CNc2ccc(Cl)cc2)o1)Nc1nc2ccccc2s1", "Potency": "inconclusive [inhibitor, single point]"},
      {"smiles": "COc1cccc(NC(=O)Cc2nc(-c3ccccc3)sc2-c2ccc(C)cc2)c1", "Potency": "active: 16.4 µM"},
      {"smiles": "CSc1ccccc1C(=O)N1CCC2(CC1)CC(=O)c1ccccc1O2", "Potency": "inconclusive [inhibitor, single point]"},
      {"smiles": "CCS(=O)(=O)N1CCc2cc(C(=O)Nc3cc(C(F)(F)F)ccc3Cl)ccc21", "Potency": "inconclusive [inhibitor, partial curve]"},
      {"smiles": "Cn1c(N)c(C(=O)N/N=C/c2ccccc2)sc1=S", "Potency": "inconclusive [inhibitor, single point]"},
      {"smiles": "O=C(Nc1ccc2c(c1)OCCO2)c1ccc(S(=O)(=O)N2CCCCC2)cc1", "Potency": "inconclusive [inhibitor, single point]"},
      {"smiles": "Cc1ccc(C2=N/C(=C/c3cccs3)C(=O)N2Nc2ccccc2)cc1", "Potency": "inconclusive [inhibitor, single point]"},
      {"smiles": "CC/C(O)=C1\\C(=O)CC(C)(C)CC1=Nc1ccccc1C", "Potency": "inconclusive [inhibitor, single point]"},
      {"smiles": "Cc1cccc(/C=N/NC(=O)c2cc(Br)ccc2OCc2ccccc2)n1", "Potency": "active: 23.1 µM"},
      {"smiles": "Cc1ccc(-c2nnc(SCc3nc4ccccc4[nH]3)n2Cc2ccco2)cc1", "Potency": "inconclusive [inhibitor, single point]"},
      {"smiles": "Cc1ccccc1CN1CCCC(C(=O)Nc2ccc(-c3ccn[nH]3)cc2)C1", "note": "(configuration not stated)", "Potency": "inconclusive [inhibitor, single point]"},
      {"smiles": "COc1cccc(-c2ccc(NC(=O)C3CCCN(Cc4cccc(C)n4)C3)cc2)c1", "note": "(configuration not stated)", "Potency": "active: 23.1 µM"},
      {"smiles": "COc1cc(C(=O)N/N=C(\\C)Cn2nc([N+](=O)[O-])cc2C)ccc1O", "Potency": "inactive"},
      {"smiles": "CC1=NN(C(N)=S)C(=O)C1N=Nc1ccc(Cl)cc1Cl", "note": "(configuration not stated)", "Potency": "inconclusive [inhibitor, partial curve]"},
      {"smiles": "O=C(Nc1ccc(F)c(Cl)c1)C1Cc2c(-c3cccc(F)c3)ccnc2O1", "note": "(configuration not stated)", "Potency": "inconclusive [inhibitor, single point]"},
      {"smiles": "CC(C)(C)OC(=O)COc1ccc(/C=N/NC(=O)CN2CCCCC2)cc1", "Potency": "inactive"}
    ]}
  ]
}
